# Test results from the supplement of paper PMC8728848.
# Some of the results follow.
# Legend:
# Assay in all cases: glycan array binding signal (z-score within array); higher = stronger binding
# Settings in all cases: glycan notation: IUPAC condensed, linker removed
# [1] = target: Neu5Ac(a2-6)Gal(b1-4)GlcNAc(b1-3)[Neu5Ac(a2-6)Gal(b1-4)GlcNAc(b1-6)]GalNAc
# Procedure, shortened: (§1)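 Arrays were curated from the Consortium for Functional Glycomics database, 3228 in total, and kept only where the protein sequence was available. Binding is expressed as a within-array Z-score. This score was averaged across arrays of the same protein sequence at different concentrations or buffers and across linkers, and negative values can be read as non-binding.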
# [2] = target: Neu5Ac(a2-6)Gal(b1-4)GlcNAc(b1-6)GalNAc
# Procedure, shortened: as §1
# [3] = target: Neu5Ac(a2-6)Gal(b1-4)GlcNAc(b1-6)[Gal(b1-3)GlcNAc(b1-3)]Gal(b1-4)Glc
# Procedure, shortened: as §1
# [4] = target: Neu5Ac(a2-6)Gal(b1-4)GlcNAc(b1-6)[Gal(b1-3)]GalNAc
# Procedure, shortened: as §1
# [5] = target: Neu5Ac(a2-6)Gal(b1-4)GlcNAc6S
# Procedure, shortened: as §1
# [6] = target: Neu5Ac(a2-6)Gal(b1-4)[Fuc(a1-3)]GlcNAc(b1-3)Gal(b1-4)Glc
# Procedure, shortened: as §1
# [7] = target: Neu5Ac(a2-6)Gal(b1-6)GalNAc(b1-4)Gal(b1-4)Glc
# Procedure, shortened: as §1
# Neu5Ac(a2-6)Gal6S = target: Neu5Ac(a2-6)Gal6S
# Procedure, shortened: as §1
# [8] = target: Neu5Ac(a2-6)Gal6S(b1-4)Glc
# Procedure, shortened: as §1
# [9] = target: Neu5Ac(a2-6)Gal6S(b1-4)Glc4S
# Procedure, shortened: as §1
# Neu5Ac(a2-6)GalNAc = target: Neu5Ac(a2-6)GalNAc
# Procedure, shortened: as §1
# [10] = target: Neu5Ac(a2-6)GalNAc(b1-4)GlcNAc
# Procedure, shortened: as §1
# [11] = target: Neu5Ac(a2-6)GalNAc(b1-4)GlcNAc6S
# Procedure, shortened: as §1
# Neu5Ac(a2-6)Glc = target: Neu5Ac(a2-6)Glc
# Procedure, shortened: as §1
# Neu5Ac(a2-6)Glc6S = target: Neu5Ac(a2-6)Glc6S
# Procedure, shortened: as §1
# Neu5Ac(a2-6)GlcNAc = target: Neu5Ac(a2-6)GlcNAc
# Procedure, shortened: as §1
# [12] = target: Neu5Ac(a2-6)GlcNAc(b1-4)GlcNAc
# Procedure, shortened: as §1
# [13] = target: Neu5Ac(a2-6)GlcNAc(b1-4)GlcNAc(b1-4)GlcNAc
# Procedure, shortened: as §1
# Neu5Ac(a2-6)GlcNAc6S = target: Neu5Ac(a2-6)GlcNAc6S
# Procedure, shortened: as §1
# Neu5Ac(a2-8)Neu5Ac = target: Neu5Ac(a2-8)Neu5Ac
# Procedure, shortened: as §1
# [14] = target: Neu5Ac(a2-8)Neu5Ac(a2-3)Gal
# Procedure, shortened: as §1
# [15] = target: Neu5Ac(a2-8)Neu5Ac(a2-3)Gal(b1-3)GalNAc(b1-4)[Neu5Ac(a2-3)]Gal(b1-4)Glc
# Procedure, shortened: as §1
# [16] = target: Neu5Ac(a2-8)Neu5Ac(a2-3)Gal(b1-3)GalNAc(b1-4)[Neu5Ac(a2-8)Neu5Ac(a2-3)]Gal(b1-4)Glc
# Procedure, shortened: as §1
# [17] = target: Neu5Ac(a2-8)Neu5Ac(a2-3)Gal(b1-4)Glc
# Procedure, shortened: as §1
# [18] = target: Neu5Ac(a2-8)Neu5Ac(a2-3)Gal(b1-4)GlcNAc
# Procedure, shortened: as §1
# [19] = target: Neu5Ac(a2-8)Neu5Ac(a2-3)[Gal(b1-3)GalNAc(b1-4)]Gal(b1-4)Glc
# Procedure, shortened: as §1
# [20] = target: Neu5Ac(a2-8)Neu5Ac(a2-3)[GalNAc(b1-4)]Gal(b1-4)Glc
# Procedure, shortened: as §1
# [21] = target: Neu5Ac(a2-8)Neu5Ac(a2-6)Gal
# Procedure, shortened: as §1
# [22] = target: Neu5Ac(a2-8)Neu5Ac(a2-6)Glc
# Procedure, shortened: as §1
# [23] = target: Neu5Ac(a2-8)Neu5Ac(a2-8)Neu5Ac
# Procedure, shortened: as §1
# [24] = target: Neu5Ac(a2-8)Neu5Ac(a2-8)Neu5Ac(a2-3)Gal(b1-4)Glc
# Procedure, shortened: as §1
# [25] = target: Neu5Ac(a2-8)Neu5Ac(a2-8)Neu5Ac(a2-3)[Gal(b1-3)GalNAc(b1-4)]Gal(b1-4)Glc
# Procedure, shortened: as §1
# [26] = target: Neu5Ac(a2-8)Neu5Ac(a2-8)Neu5Ac(a2-3)[GalNAc(b1-4)]Gal(b1-4)Glc
# Procedure, shortened: as §1
# [27] = target: Neu5Ac(a2-8)Neu5Ac(a2-8)Neu5Ac(a2-6)Gal
# Procedure, shortened: as §1
# [28] = target: Neu5Ac(a2-8)Neu5Ac(a2-8)Neu5Ac(a2-8)Neu5Ac
# Procedure, shortened: as §1
# [29] = target: Neu5Ac(a2-8)Neu5Ac(a2-8)Neu5Ac(a2-8)Neu5Ac(a2-3)[GalNAc(b1-4)]Gal(b1-4)Glc
# Procedure, shortened: as §1
# [30] = target: Neu5Ac(a2-8)Neu5Ac(a2-8)Neu5Ac(a2-8)Neu5Ac(a2-8)Neu5Ac
# Procedure, shortened: as §1
# [31] = target: Neu5Ac(a2-8)Neu5Ac(a2-8)Neu5Ac(a2-8)Neu5Ac(a2-8)Neu5Ac(a2-8)Neu5Ac
# Procedure, shortened: as §1
# [32] = target: Neu5Ac(a2-8)Neu5Ac(a2-8)Neu5Ac(a2-8)Neu5Ac(a2-8)Neu5Ac(a2-8)Neu5Ac(a2-8)Neu5Ac
# Procedure, shortened: as §1
binder,measurement,setting,value
"CLEC5A (Homo sapiens), Q9NY25 (protein) MNWHMIISGLIVVVLKVVGMTLFLLYFPQIFNKSNDGFTTTRSYGTVSQIFGSSSPSPNGFITTRSYGTVCPKDWEFYQARCFFLSTSESSWNESRDFCKGKGSTLAIVNTPEKLKFLQDITDAEKYFIGLIYHREEKRWRWINNSVFNGNVTNQNQNFNCATIGLTKTFDAASCDISYRRICEKNAK",glycan array binding signal (z-score),[1],-0.105
same,glycan array binding signal (z-score),[2],-0.056
same,glycan array binding signal (z-score),[3],-0.224
same,glycan array binding signal (z-score),[4],0.23
same,glycan array binding signal (z-score),[5],-0.08
same,glycan array binding signal (z-score),[6],-0.32
same,glycan array binding signal (z-score),[7],-0.32
same,glycan array binding signal (z-score),Neu5Ac(a2-6)Gal6S,-0.32
same,glycan array binding signal (z-score),[8],-0.32
same,glycan array binding signal (z-score),[9],-0.127
same,glycan array binding signal (z-score),Neu5Ac(a2-6)GalNAc,-0.392
same,glycan array binding signal (z-score),[10],-0.195
same,glycan array binding signal (z-score),[11],-0.137
same,glycan array binding signal (z-score),Neu5Ac(a2-6)Glc,-0.32
same,glycan array binding signal (z-score),Neu5Ac(a2-6)Glc6S,-0.32
same,glycan array binding signal (z-score),Neu5Ac(a2-6)GlcNAc,-0.32
same,glycan array binding signal (z-score),[12],-0.319
same,glycan array binding signal (z-score),[13],-0.117
same,glycan array binding signal (z-score),Neu5Ac(a2-6)GlcNAc6S,-0.32
same,glycan array binding signal (z-score),Neu5Ac(a2-8)Neu5Ac,0.123
same,glycan array binding signal (z-score),[14],-0.32
same,glycan array binding signal (z-score),[15],-0.208
same,glycan array binding signal (z-score),[16],-0.18
same,glycan array binding signal (z-score),[17],-0.294
same,glycan array binding signal (z-score),[18],-0.191
same,glycan array binding signal (z-score),[19],-0.133
same,glycan array binding signal (z-score),[20],-0.288
same,glycan array binding signal (z-score),[21],0.451
same,glycan array binding signal (z-score),[22],-0.32
same,glycan array binding signal (z-score),[23],-0.255
same,glycan array binding signal (z-score),[24],-0.262
same,glycan array binding signal (z-score),[25],-0.191
same,glycan array binding signal (z-score),[26],0.038
same,glycan array binding signal (z-score),[27],-0.127
same,glycan array binding signal (z-score),[28],-0.32
same,glycan array binding signal (z-score),[29],0.404
same,glycan array binding signal (z-score),[30],-0.32
same,glycan array binding signal (z-score),[31],-0.32
same,glycan array binding signal (z-score),[32],-0.32
